From publication PMC5147500 (Cell, 2016)

B1: VPS26A […], the VPS26 part of the fusions VPS26([…])-DMT1(549–560) and VPS26([…])-DMT1(549–560)(L557M) (domain or fragment)
chain: not shown
modifications: labeled with SeMet (selenomethionine)
B2: VPS26A […], the VPS26 part of the fusion VPS26([…])-DMT1([…]) (domain or fragment)
chain: not shown
B3: VPS26 from pmr101A-VPS26, with an extra MG at the N terminus and … at the C terminus (natural protein)
chain: not shown
modifications: labeled with SeMet (selenomethionine)

Target: N-terminal part of human VPS35 (VPS35N), […] (human)
Test: crystal structure

Binding result, binds:
B1
B2
B3
